About 540 (0.36%) of roughly 150,000 compounds showed an effect of 50% or more. The list shows a part of the results.

83 compounds from ChEMBL document CHEMBL4888484, “Replenishing the malaria drug discovery pipeline: Screening and hit evaluation of the MMV Hit Generation Library 1 (HGL1) against asexual blood stage Plasmodium falciparum ,using a nano luciferase reporter read-out” (2022) can be followed below.

In this assay the test system is Plasmodium falciparum. The experiment in a line: Primary screen in NF54 nanoGlo assay, in single point, at 2uM, 72h; a lower Z score goes with more inhibition. It counts as functional, Erythrocyte. Conditions: timepoint 72 hour.
Turning to `Cc1ccc(OCc2ccc(C(=O)NCC3CC(N)C3)o2)c(C)c1` (stereo unspecified), the “% Inhibition” value is listed as -15% and the Z score turned out to be 2.1.
With `O=C(NCC1(C2(O)CCOCC2)CC1)c1c[nH]c2cc(Cl)ccc12`, the “% Inhibition” value is 20% and the Z score was -2.54.
As to `O=C(CC1COCCN1)NC(Cc1ccccc1Cl)c1ccccc1` (stereo unspecified), the “% Inhibition” value is given as -2% and the Z score amounted to 0.35.
In the case of `CC(C)(Oc1cc2c(cc1-c1cncc(C3CC3)c1)CCO2)C(=O)O`, the “% Inhibition” value was -1% and the Z score turned out to be 0.1.
With `CN(CCc1noc(C(F)(F)F)n1)C(=O)[C@H]1C[C@@H]1c1ccccc1`, the “% Inhibition” value is on record as -3% and the Z score was determined as 0.4.
As to `COc1ccc(CC[C@H](C)NC(=O)NCCNc2cnccn2)cc1`, the “% Inhibition” value stood at 1% and the Z score is reported as -0.16.
In the case of `CCOC(=O)Cc1nc(COc2ccc(Cl)cc2)n[nH]1`, the “% Inhibition” value is recorded as -5% and the Z score worked out at 0.74.
In the case of `COc1ccc2c(c1)CCN(Cc1nonc1C)C2`, the “% Inhibition” value is -9% and the Z score is recorded as 1.15.
Turning to `C[C@H]1Cc2ccccc2N1C(=O)Cn1ncc(N2CCCN(C)CC2)cc1=O`, the “% Inhibition” value is listed as 3% and the Z score is reported as -0.49.
In the case of `CCOc1cc2c(cc1-c1nccn1CCn1cnnc1)CCC2`, the “% Inhibition” value is on record as -11% and the Z score is given as 1.44.
For `CCC[C@H]1CCCN1C(=O)c1cccc2c1CN(CCc1cn(C)cn1)C2=O`, the “% Inhibition” value is recorded as -3% and the Z score amounted to 0.53.
Regarding `COc1cccc(CN2Cc3cc(NC(=O)Cc4cccs4)ccc3O[C@@H](C)C2=O)c1`, the “% Inhibition” value is -3% and the Z score is 0.45.
Turning to `CCCc1csc(NC(=O)NCc2ccco2)n1`, the “% Inhibition” value is recorded as 5% and the Z score is on record as -0.83.
As for `O=C(N[C@H]1CCN(c2ccc(C(F)(F)F)cn2)C1)c1ccc2cc[nH]c2c1`, the “% Inhibition” value is -1% and the Z score is 0.25.
For `O=C(N[C@H]1CC[C@H](Oc2ncccn2)CC1)c1ccoc1`, in that order: -15% and 1.76.
With `Cc1cc(C)c(CS(=O)(=O)[C@@H](C)C(=O)N2CCCC2)c(C)c1`, the “% Inhibition” value was -7% and the Z score was found to be 1.33.
For `CCCCC(CC)CNC(CC(=O)Nc1ccccc1C#N)C(=O)O` (stereo unspecified), the “% Inhibition” value was -13% and the Z score came out at 1.7.
In the case of `Cc1cccc2nc(NCc3nnc4n3CCN(C)C4=O)sc12`, the “% Inhibition” value was determined as 32% and the Z score is reported as -3.57.
For `CN(C)C(=O)c1cccc(CNC(=O)N2C[C@H]3C[C@H](O)[C@H](O)C[C@H]3C2)c1`, the “% Inhibition” value is recorded as -14% and the Z score amounted to 1.91.
Regarding `CC(=O)Nc1cccc(C(=O)N2C[C@H]3CCC[C@@H](C2)N(C)C3)c1`, the “% Inhibition” value is on record as -11% and the Z score is 1.31.
`Cc1cc(N[C@H]2CC(=O)N(Cc3ccccc3)C2=O)ccc1N1CCCC1=O`: the “% Inhibition” value is listed as -10% and the Z score was determined as 0.88.
For `CCO[C@H]1COCC[C@@H]1NC(=O)c1cccc2cnccc12`, in that order: -8% and 1.34.
For the compound `CCN1CCC(N2C[C@@H]3OC(=O)N(CCCc4ccc(F)cc4)[C@@H]3C2)CC1`, the “% Inhibition” value is -3% and the Z score amounted to 0.37.
Turning to `C=CCN1CC[C@@]2(CCC1=O)CN(c1cccc(C#N)n1)CCN2C`, the “% Inhibition” value is recorded as -1% and the Z score is 0.25.
On to `COc1ccccc1C(N)=NOCc1csc(C2CCCC2)n1`, for which the “% Inhibition” value is listed as -9% and the Z score is 1.19.
With `COc1ccc(CC(=O)N2CCC(Oc3ncccc3Br)CC2)cc1OC`, the “% Inhibition” value is -8% and the Z score was 1.53.
Take `O=C(NC1CCOCC1)c1cc(Cl)ccc1OC1CCN(C2CCCC2)CC1`: the “% Inhibition” value was -18% and the Z score is 2.59.
`NC(=O)N1CCC(Nc2ccc([C@H]3CCOC3)cc2)CC1`: the “% Inhibition” value was determined as 3% and the Z score is on record as -0.46.
For `COc1cnc(NC(=O)[C@@H]2CC[C@H](C(=O)N(C)C)O2)cn1`, in that order: -12% and 1.42.
For `Cc1ccc(-c2cc(NC(=O)c3ccccc3)c(=O)n(CC(=O)Nc3cc(F)cc(F)c3)n2)cc1`, in that order: -5% and 0.78.
For `COc1ccc(-c2cnn3c(C)cc(C)nc23)cc1S(=O)(=O)NCc1ccc2c(c1)OCO2`, in that order: -16% and 1.52.
As for `Cc1cccc(CNC(=O)NC2CCOC2c2ccc(Cl)cc2)n1` (stereo unspecified), the “% Inhibition” value is 33% and the Z score was -4.45.
With `Cc1n[nH]c(C(F)(F)F)c1-c1cccc(C(=O)N2CCNC(=O)CC2)c1`, the “% Inhibition” value is -11% and the Z score amounted to 2.24.
For the compound `Cc1cnc(C)n1C[C@H]1CCN(C(=O)c2ccoc2)C1`, the “% Inhibition” value was -11% and the Z score was determined as 1.42.
With `Cc1noc(CCNC(=O)c2cn(C)cn2)n1`, the “% Inhibition” value is given as -5% and the Z score amounted to 0.61.
For `O=C(c1cc(Cl)cc(Cl)c1)N1c2ccccc2C=Cc2ccccc21`, in that order: -4% and 0.81.
For `CCN(CC(=O)NCc1cccs1)C(=O)c1cc(S(=O)(=O)N2CCCCC2)ccc1Cl`, in that order: 0% and 0.01.
For `Cc1cccc(N2CCN(C(=O)c3nn(C)c4c3COCC4)CC2)c1C`, the “% Inhibition” value is 4% and the Z score is given as -0.52.
As to `CCO[C@@H](C)c1noc(CNc2nccnc2C#N)n1`, the “% Inhibition” value was -3% and the Z score is given as 0.49.
On to `Cc1cnc(CN2CC(O)(c3ccc(Cl)cc3)C2)nc1`, for which the “% Inhibition” value was found to be 2% and the Z score is -0.19.
The matching figures for `CC(NCC1Cc2ccccc2O1)c1ccc(-n2cnnn2)cc1` (stereo unspecified): 3% and -0.29.
For the compound `CC[C@]1(N2CCN(C(=O)NCc3ccco3)CC2)CCN(C(=O)C(C)C)C1`, the “% Inhibition” value was found to be 3% and the Z score was -0.26.
The matching figures for `Cc1ccc(Cn2c(=O)c(C(=O)NCc3cccnc3)nn(-c3ccc(C)c(F)c3)c2=O)cc1`: 6% and -1.13.
Regarding `O=C(NCCCN1CCCC1=O)c1cccc(-c2cc(O)ncn2)c1`, the “% Inhibition” value is -3% and the Z score was determined as 0.58.
For `O=C([C@@H]1CC=CCC1)N1CC(N2C(=O)CNC2=O)C1`, in that order: -7% and 1.31.
The matching figures for `COc1ccnc(NC23CCC2CN(C(=O)c2ccc(C)o2)C3)n1` (stereo unspecified): -6% and 1.16.
Consider `C=CCN(CC=C)CC(=O)Nc1cc(C(C)(C)C)no1`, for which the “% Inhibition” value is reported as -1% and the Z score is 0.16.
Consider `COc1ccc(OCC(=O)N[C@H]2CC(=O)N(c3ccc4c(c3)OCCO4)C2)cc1`, for which the “% Inhibition” value is -7% and the Z score was 1.31.
For the compound `Cc1cccnc1[C@@H](NC(=O)c1cc(Cl)cn1C)C1CC1`, the “% Inhibition” value is recorded as -18% and the Z score was determined as 1.65.
`O=C(CNS(=O)(=O)c1ccccc1)NCC(=O)OCc1ccc(S(=O)(=O)Cc2ccccc2)cc1`: the “% Inhibition” value was found to be 5% and the Z score is on record as -0.73.
Consider `CCCOc1ccccc1CCCNC(=O)N1C[C@H]2C[C@H](O)[C@@H](O)C[C@H]2C1`, for which the “% Inhibition” value is recorded as 5% and the Z score is reported as -0.74.
As for `CN(C)c1nc2c(c(N3CC=CCC3)n1)CCN(C1CCOCC1)CC2`, the “% Inhibition” value was -18% and the Z score stood at 1.6.
For the compound `Cn1ncc2c(Nc3ccc4c(c3)OCO4)ncnc21`, the “% Inhibition” value stood at 10% and the Z score is on record as -1.14.
The matching figures for `COCCCN1CCN(C(=O)Nc2cccc3ncccc23)CC1`: -4% and 0.82.
As for `Cc1n[nH]c(C2CN(CC3CCCCO3)CCO2)n1` (stereo unspecified), the “% Inhibition” value is -12% and the Z score was determined as 1.22.
Consider `O=C(Nc1nnc(C2CC2)s1)N1CCN(Cc2ccccc2)C2(CCCCC2)C1`, for which the “% Inhibition” value was 2% and the Z score is given as -0.38.
Consider `CCCc1cnc(C)nc1N1C[C@H](c2ccc(OC)cc2)[C@@H](N)C1`, for which the “% Inhibition” value is recorded as -5% and the Z score was determined as 0.59.
For `CC[C@H](NC(=O)c1cncs1)c1ncnn1C`, in that order: -6% and 0.84.
Regarding `Cn1ncnc1-c1ccnc(NC2(c3ccccc3)CC2)n1`, the “% Inhibition” value is on record as -6% and the Z score is given as 0.71.
Take `CCCc1nc2[nH]nc(N)c2c2c1CCC2`: the “% Inhibition” value worked out at 14% and the Z score is recorded as -1.76.
For `Cc1nc2ccccc2n1Cc1cc(C(=O)N[C@@H](C)C(N)=O)n[nH]1`, the “% Inhibition” value was -20% and the Z score is recorded as 1.83.
Consider `O=S(=O)(NC1CCCN(CCN2CC3CCC(C2)O3)C1)c1cccc(F)c1` (stereo unspecified), for which the “% Inhibition” value is recorded as -11% and the Z score came out at 1.78.
Take `O=C(Cc1cnn(-c2ccccc2)n1)N1CCOC2CCCC21` (stereo unspecified): the “% Inhibition” value is listed as -2% and the Z score was determined as 0.4.
For `Cc1nnc(-c2cc(C(C)C)n(-c3ccc(C(=O)N4CCC[C@H](C)C4)cc3)n2)o1`, in that order: -11% and 1.74.
For `CN(C)S(=O)(=O)N(C)Cc1ccc2nsnc2c1`, in that order: -11% and 2.26.
Turning to `O=C(Cn1ncn2nc(-c3ccccc3)cc2c1=O)N1CCN(c2ccccn2)CC1`, the “% Inhibition” value is -21% and the Z score came out at 1.86.
For the compound `COc1cc(NC(=O)c2cnc(N3CCN(C)CC3)nc2C)cc(OC)c1`, the “% Inhibition” value was -8% and the Z score worked out at 1.28.
Turning to `Cc1cccc(S(=O)(=O)N2CCn3ncc(Br)c32)c1`, the “% Inhibition” value is 0% and the Z score is recorded as -0.06.
`O=C(NC1CCCC1)c1cc2c(F)cccc2s1`: the “% Inhibition” value is reported as 2% and the Z score is listed as -0.27.
As for `O=C(NCCC1=CCCCC1)c1coc(NC(=O)c2cnccn2)n1`, the “% Inhibition” value was 0% and the Z score is 0.01.
Take `O=C(Nc1nncs1)NC1(CO)CCCC1`: the “% Inhibition” value is recorded as -2% and the Z score is given as 0.46.
For `CCN(CC)CCN(C)C(=O)[C@H]1CCCC[C@H]1C(=O)NC(C)(C)C`, the “% Inhibition” value was determined as 4% and the Z score is given as -0.52.
Turning to `Cc1cc2cc(NC(=O)N(Cc3ccncc3)C3CCN(C)CC3)ccc2o1`, the “% Inhibition” value turned out to be 19% and the Z score was -2.54.
For `COCC(NC(=O)N1CCCC(Cc2noc(C)n2)C1)C1CCCO1` (stereo unspecified), in that order: -3% and 0.63.
Regarding `CN(Cc1nnc[nH]1)S(=O)(=O)c1ccc2c(c1)OCCCO2`, the “% Inhibition” value came to 2% and the Z score is reported as -0.22.
The matching figures for `COc1ccc(/C=C/CN2C[C@@H]3CC[C@H]2CN(Cc2c(C)noc2C)C3)cc1`: -2% and 0.3.
Take `O=C(Cc1ccccc1)Nc1cc(NC(=O)Cc2ccccc2)cc(C(=O)O)c1`: the “% Inhibition” value is 0% and the Z score is -0.06.
On to `CN(CCS(=O)(=O)c1ccccc1)[C@H]1CCS(=O)(=O)C1`, for which the “% Inhibition” value was determined as 1% and the Z score was -0.15.
`Clc1ccc(COc2cccc(CNCc3ccc4c(c3)OCO4)c2)cc1`: the “% Inhibition” value is 3% and the Z score was -0.35.
Regarding `CCn1c([C@H]2CCCN(C(=O)Cc3nc4ccccc4o3)C2)n[nH]c1=O`, the “% Inhibition” value is -16% and the Z score was 3.13.
`CC(C)(C)NC(=O)Cn1c(=O)n(CCc2cccs2)c(=O)c2sccc21`: the “% Inhibition” value is reported as -19% and the Z score is recorded as 2.42.
Take `CCc1ccc(CN2C[C@@H]3NC(=O)CN(C)C(=O)c4ccc(C)c(c4)Oc4cccc(c4)CO[C@H]3C2)nc1`: the “% Inhibition” value is 1% and the Z score is listed as -0.3.
As to `Cc1cc2n(n1)CCCN(C(=O)Cn1cnc3ccccc3c1=O)C2`, the “% Inhibition” value turned out to be 4% and the Z score is -0.7.
